# According to PubChem BioAssay AID488969 (Vanderbilt High Throughput Screening Facility, 2010):
# Whole data set: some 110,000 compounds, median “z-score” near -0.1, cut for the highest 2% near 2. Some of the results follow. Activity calls are given as the source filed them.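 Rule for the calls: active = z-score in the third read window above 3 or below -3; inactive = the rest.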
# Molecular target: Metabotropic glutamate receptor 8 (Rattus norvegicus) (UniProt P70579)
# Assay: mGluR8 Gi/Go-coupled signaling modulation – cell-based, rat, thallium flux, HTS, primary screen (AID 488969)
# Conditions: HEK293 rat mGluR8, GIRK (G protein-gated inwardly rectifying potassium channel) thallium flux, FluoZin2; at 10 µM; stronger effect = higher value; submaximal glutamate (EC20) added with thallium
# Sequence of UniProt P70579 (P70579 whole entry, looked up): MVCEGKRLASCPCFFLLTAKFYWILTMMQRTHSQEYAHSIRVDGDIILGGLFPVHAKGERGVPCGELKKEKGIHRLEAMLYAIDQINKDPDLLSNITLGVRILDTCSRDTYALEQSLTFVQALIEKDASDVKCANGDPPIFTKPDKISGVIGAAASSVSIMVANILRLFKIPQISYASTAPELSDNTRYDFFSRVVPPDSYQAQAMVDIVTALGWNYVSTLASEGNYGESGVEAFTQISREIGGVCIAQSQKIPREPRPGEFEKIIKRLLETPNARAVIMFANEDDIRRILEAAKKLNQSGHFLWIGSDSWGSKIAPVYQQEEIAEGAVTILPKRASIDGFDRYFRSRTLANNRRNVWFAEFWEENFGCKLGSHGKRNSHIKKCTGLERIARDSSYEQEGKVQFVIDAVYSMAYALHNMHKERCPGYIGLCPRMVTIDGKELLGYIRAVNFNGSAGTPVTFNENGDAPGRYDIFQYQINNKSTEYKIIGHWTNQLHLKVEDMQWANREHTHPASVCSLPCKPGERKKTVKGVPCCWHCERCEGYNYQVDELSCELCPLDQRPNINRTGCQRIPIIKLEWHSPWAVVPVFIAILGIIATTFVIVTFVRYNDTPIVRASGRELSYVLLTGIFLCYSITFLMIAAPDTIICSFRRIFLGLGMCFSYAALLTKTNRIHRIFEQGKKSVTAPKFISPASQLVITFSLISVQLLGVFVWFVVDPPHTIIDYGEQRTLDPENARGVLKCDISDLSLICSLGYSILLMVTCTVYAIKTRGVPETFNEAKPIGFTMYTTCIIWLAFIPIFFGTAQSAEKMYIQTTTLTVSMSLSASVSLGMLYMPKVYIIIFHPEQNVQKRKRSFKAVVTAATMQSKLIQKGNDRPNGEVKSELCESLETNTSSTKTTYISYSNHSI
row,Compound,z-score
1,O=C(NNC(=O)c1cc2cc3ccccc3nc2s1)c1cccc(Cl)c1,0.21
2,Cc1ccsc1/C=N/n1c(-c2cccnc2)n[nH]c1=S,-0.554
3,Cc1ccc(-c2nnn(CC(=O)N(Cc3cccs3)C(C(=O)NC3CCCCC3)c3ccco3)n2)o1 (stereo not drawn),0.915
4,CN1CCN(C(=O)CCn2nc(-c3ccccc3)c3ccccc3c2=O)CC1,0.654
5,O=C1C2ON(c3ccc(Br)cc3)C(c3cccnc3)C2C(=O)N1C1CCCCC1 (stereo not drawn),-0.0496
6,CCOC(=O)c1cc2n(n1)C(C(F)(F)C(F)(F)F)CC(C)N2 (stereo not drawn),-0.125
7,CCc1ccc(OCC(=O)NCCN(C)C)c(Br)c1,0.426
8,NC(=O)c1ccc(NC(=O)c2ccc3c(c2)OCO3)cc1,-0.0572
9,CC(=O)Nc1nc(CC(C)C)cc2c1c(=O)oc1ccccc12,-0.0373
10,CCN(CC)CCCn1c(C)cc2c(c1=O)C(c1ccccc1)C(C#N)=C(N)O2 (stereo not drawn),0.538
11,Cc1ccc2nc(-c3ccc(NS(=O)(=O)c4ccccc4)cc3)sc2c1,-0.202
12,O=C(CN1CCCc2ccccc21)NCc1ccccc1Cl,-0.0417
13,COc1cc(/C=C2/CCC/C(=C\c3cc(O)c(OC)c(Cl)c3)C2=O)cc(Cl)c1O,-0.0835
14,COc1cccc(-n2ccnc2SCC(=O)Nc2nccs2)c1,-0.0634
15,Cn1c(N2CCN(C(=O)Nc3ccc(C(F)(F)F)cc3)CC2)nc2ccccc21,0.119
16,CC(C)CNC(=O)c1ccc(Cl)c(Cl)c1,-0.0712
17,CN1CCCC(OC(=O)c2ccc3c(c2)OCCO3)C1 (stereo not drawn),0.119
18,O=C(COC(=O)c1n[nH]c2ccccc12)NC(=O)NC1CCCCC1,-0.0546
19,O=C(NCCc1ccccc1)C1CCC(Cn2c(=O)c3ccccc3n(Cc3cccnc3)c2=O)CC1 (stereo not drawn),-0.39
20,COc1cc2ncnc(NCc3ccccc3C)c2cc1OC,-0.403
21,c1cncc(-c2nc(-c3cccs3)cs2)c1,0.113
22,CC(C)COC(=O)CCNc1n[nH]c(=O)[nH]c1=O,0.184
23,COc1ccc(NC(=O)CCn2cccc2)cc1,0.0919

row,Compound,z-score
1,O=C1CC(=O)N(CCc2ccc(F)cc2)C(=O)N1,-0.302
2,CCOC(=O)c1sc(NC(=O)c2ccc(S(=O)(=O)N(C)C)cc2)nc1C,-0.107
3,c1coc(CNC2CCCCC2)c1,-0.0676
4,O=C(Nn1cnnc1)c1ccncc1,-0.317
5,CCOC(=O)c1sc(N)nc1C(C)(C)C,-0.244
6,Oc1c(CN2CCN(c3ccc(F)cc3)CC2)cc(Cl)c2cccnc12,-0.0554
7,CNC(=O)/C(=C\c1cccc(Oc2ccccc2)c1)NC(=O)c1ccccc1,0.601
8,CCC1CCCCN1S(=O)(=O)c1ccc(NC(=O)c2cccs2)cc1 (stereo not drawn),-0.41
9,O=C(Nc1ccc2c(c1)N(Cc1ccccc1)C(=O)c1ccccc1S2)NC1CC1,-0.663
10,CCOc1cc(C(=O)Nc2ccc(NC(C)=O)cc2)ccc1OCC(=O)N1CCCCC1,-0.343
11,COc1cc(/C=N/Nc2snc(SC)c2C#N)ccc1O,0.125
12,CNc1nc(C)c(C#N)cc1C(C)=O,0.0246
13,O=S(=O)(c1ccccc1)n1c(C(O)c2ccccn2)cc2ccccc21 (stereo not drawn),0.524
14,CC12CN3CC(C)(CN(C1)C3c1ccc(Br)cc1)C2=O (stereo not drawn),0.119
15,COc1cccc(C2=Nn3c(nnc3-c3ccccc3O)SC2)c1,-0.118
16,Cc1ccc(C(=O)NCC(=O)OCC(=O)c2cc(C)n(Cc3ccco3)c2C)cc1,-0.049
17,COc1ccc(C)cc1NC1=C(Cl)C(=O)N(C2CCCCC2)C1=O,-0.0567
18,Cc1ccc2c(c1)c(Sc1ccccc1)c(CC(=O)O)n2C,-0.191
19,CC(OC(=O)CN1C(=O)NC(C)(C)C1=O)C(=O)c1ccccc1 (stereo not drawn),-0.0313
20,CCCOc1ccc(N2CC(C(=O)Nc3ccc4c(c3)OCO4)CC2=O)cc1 (stereo not drawn),0.624
21,COC(=O)N/N=C/c1c(C)cc(C)cc1C,-0.378
22,O=C(CCn1c(=O)c2sccc2n(CC(=O)NCc2ccco2)c1=O)NCc1ccccc1,0.319
23,COc1ccc(/C=N/NC(=O)c2ccncc2)cc1CSc1nc2ccccc2s1,-0.203

row,Compound,z-score
1,CC(C)c1cc(C(=O)NCc2ccco2)no1,0.251
2,c1ccc(-n2nnnc2OCCOc2nnnn2-c2ccccc2)cc1,-0.166
3,CCC(=O)c1ccc(OCCn2cncn2)cc1,-0.449
4,O=C(Nc1ccc(NC(=O)c2sc3ccccc3c2Cl)cc1Cl)c1ccco1,-0.23
5,C=CCn1c(SCC(=O)Nc2ccc3c(c2)OCO3)nnc1-c1ccccc1,-0.167
6,COc1ccc(CN(C)CC(=O)Nc2cc(OC)c([N+](=O)[O-])cc2C)c(OC)c1,-0.503
7,CC(=O)c1sc(Nc2ccccn2)nc1C,0.82
8,COc1ccc(S(=O)(=O)Nc2ccc(S(=O)(=O)Nc3ccc(F)cc3)cc2)cc1C,-0.347
9,Cc1ccc(NC(=O)CSc2nnc(CNC(=O)c3c(F)cccc3Cl)o2)cc1,-0.109
10,COc1ccc(C(=O)NCc2nnc(SCC(=O)N3CCc4ccccc43)o2)cc1OC,-0.164
11,COc1ccccc1C1NC(=O)NC(C)=C1C(=O)Nc1cccc(C)c1C (stereo not drawn),-0.0278
12,O=C(CC1NCCNC1=O)Nc1ccc2c(c1)OCO2 (stereo not drawn),0.104
13,COC(=O)c1ccc(Cl)c(NC(=O)CN2CCN(Cc3ccccc3)CC2)c1,-0.236
14,COCc1cc(C)nc(SCC(=O)Nc2cccc3cccnc23)c1C#N,-1.69
15,CCOC(=O)c1sc(NC(=O)c2c(C)noc2C)c(C(=O)OCC)c1C,0.241
16,Cc1cc(OCC(=O)N2CCCCCC2)ccc1[N+](=O)[O-],0.417
17,CC1CCN(S(=O)(=O)c2ccc3c(c2)oc(=O)n3CC(=O)N2CCc3ccccc3C2)CC1,-0.172
18,O=[N+]([O-])/C=C/c1c(OCc2ccccc2)ccc2ccccc12,-0.339
19,CC(=O)N(CC(=O)O)c1ccccc1C(=O)O,-0.232
20,COc1cc(-c2ccc(NC(=O)CN3CCC(C)CC3)c(OC)c2)ccc1NC(=O)CN1CCC(C)CC1,-0.186
21,COC(=O)COn1c(SC(C)C)nc2ccccc2c1=O,2.57
22,CCc1cc(=O)oc2cc(OS(C)(=O)=O)ccc12,0.167
23,CCOc1c(Br)cc(CNc2ncn[nH]2)cc1OC,0.5

row,Compound,z-score
1,COC(=O)c1ccc(C(=O)OC)c(NC(=S)N2CCN(c3ccccc3)CC2)c1,0.0318
2,Cc1cccc(S(=O)(=O)CC(=O)Nc2nc(-c3ccccc3)cs2)c1,-0.0717
3,O=C(CSc1nc(-c2ccc(F)cc2)cs1)N1CCOCC1,active: 3.29
4,CCn1c(N2CCN(C(=O)NC3CCCCC3)CC2)nc2ccccc21,-0.00683
5,O=C(NCCN1CCN(Cc2ccc([N+](=O)[O-])cc2)CC1)C(=O)Nc1ccccc1,0.103
6,Cc1ccc(C(C(=O)NC2CCCC2)N(Cc2ccc3c(c2)OCO3)C(=O)Cc2cccs2)cc1 (stereo not drawn),-0.235
7,Cc1sc2nc(C(C)C)nc(SCC(=O)NCc3ccco3)c2c1C,active: 17
8,O=C1CC(N2CCC(O)(c3ccc(Cl)cc3)CC2)C(=O)N1 (stereo not drawn),0.198
9,CCCOc1ccc(-c2nc(C#N)c(N3CCN(CC)CC3)o2)cc1,-0.498
10,CC(C)C(c1nnnn1Cc1cccs1)N1CCN(c2ccccc2)CC1 (stereo not drawn),-0.149
11,C=CCNc1sc(C(=O)c2ccc(C)cc2)c(N)c1C#N,-0.454
12,CNC(=S)N/N=C(\C)c1ccc(Cl)s1,active: 3.13
13,Cc1ccc(C(=O)N2CCSCC2)cc1,0.55
14,COc1cccc(/C=N/Nc2nc(N3CCCC3)nc(N3CCCC3)n2)c1O,-0.936
15,COc1ccc(N=C2C(=O)Nc3c(C)cccc32)cc1,-0.214
16,O=[N+]([O-])c1ccc(Cl)c(/C=N/N2CCN(C3c4ccccc4-c4ccccc43)CC2)c1,-0.279
17,CCN1CCN(CCNC(=O)CSCc2nc(-c3ccc(OC)c(OC)c3)oc2C)CC1,-0.665
18,Cc1ccc(-n2nnnc2SCC(=O)Nc2sc(C)c(C)c2C#N)cc1C,0.0896
19,CCCSc1nsc(NC(=O)C(c2ccccc2)c2ccccc2)n1,-0.766
20,Nc1ccc(O)cc1C(=O)OCC(=O)C12CC3CC(CC(C3)C1)C2,1.38
21,COCCCNC(=O)CSc1ccc(Cl)cc1,-0.166
22,O=c1[nH]c(SCc2ccccc2Cl)nc2c1CCCC2,active: -3.29
23,Cc1ccc(Cc2cnc(NC(=O)c3cccs3)s2)cc1,0.394

row,Compound,z-score
1,Cc1cc2nc(C)c(Cc3ccccc3)c(=O)n2[nH]1,-0.963
2,CCCCN(C(=O)c1ccc(S(=O)(=O)N(C)C)cc1)c1nc2ccccc2s1,0.11
3,c1ccc(Nc2nc3ccccc3o2)cc1,0.464
4,Cc1ccc(C)c(NC(=S)N(CCc2nc3cc(C)c(C)cc3[nH]2)Cc2cccnc2)c1,-0.422
5,O=C(Nc1ccc(N2C(=O)C3C4C=CC(C4)C3C2=O)cc1)Nc1cccnc1 (stereo not drawn),0.351
6,Cc1nnc2c3ccccc3c(-c3ccccc3)nn12,0.188
7,CN(C)CCCC1(O)c2ccccc2C=Cc2ccccc21,-0.225
8,CCN(c1ccccc1)S(=O)(=O)c1ccc(NC(=O)C(C)(C)C)cc1,-0.475
9,CC1CCN(CCCOc2ccc(OCc3ccccc3)cc2)CC1,0.441
10,O=c1c(S(=O)(=O)c2ccc(Cl)cc2)cn(Cc2ccccc2)c2ccc(F)cc12,-0.29
11,CC1(C)NC(=O)N(CCOCCOc2ccc3ccccc3c2Br)C1=O,-0.136
12,COC(=O)c1ccccc1NC(=O)c1ccc(COc2cc(C)cc(C)c2)o1,-0.0413
13,COc1ccc(CCCc2nnc(SCC(=O)Nc3cc(C)ccc3C)o2)cc1,0.086
14,CN(C)CCCOC(=O)C1c2ccccc2Oc2ccccc21,-0.226
15,Nc1nnc(SCC(=O)N2CCN(c3ccccc3)CC2)n1-c1ccccc1,-0.0261
16,CC(=O)NC(CCS(C)(=O)=O)C(=O)Nc1ccc(C)c(F)c1 (stereo not drawn),0.461
17,N#CCSCC(=O)Nc1ccc(Cl)cc1,0.285
18,CNC(=S)N/N=C/c1ccc(C(C)C)cc1,active: 3.01
19,CC(NC(=O)COC(=O)Cn1cnc2ccccc2c1=O)C1CC2CCC1C2 (stereo not drawn),-0.141
20,CCOC(=O)CSc1nnc2n(Cc3ccccc3)c(=O)c3c4c(sc3n12)CCC4,-0.815
21,CCOC(=O)c1c(C(C#N)C#N)cc(C)nc1C,0.478
